PubChem BioAssay AID1346428 (National Center for Advancing Translational Sciences (NCATS), 2018)
Where “and” joins values, the source holds several entries; their conditions need not be identical. Identical values can stand only once. Screen size: about 48,000 compounds; about 1,200 (2.5%) were called active. Roughly 2% stayed inconclusive and do not appear here.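 Rule for the calls: active = activation of at least 60% and not above a set upper limit (about 1 call in 100 departs from these limits); inconclusive = activation of 40% to 60%, or above that upper limit; inactive = activation under 40%.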 The list shows a part of the results.

Target: Probable G-protein coupled receptor 32 (Homo sapiens) (UniProt O75388)
Test: qHTS for Agonists of Human Resolvin D1 Receptor DRV1; note: 0% is about no effect
Details: CHO-K1 GPR32 beta-arrestin PathHunter luminescence, 90 min; at 76.9 µM; active compounds read high; zero percent set by DMSO-only wells
How it was run: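 Readings come from a cell-based beta-arrestin complementation format: CHO-K1 GPR32 stable cells (2,500/well) treated 90 min with compounds, then beta-Gal substrate added for 1 h before chemiluminescence imaging.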

Chain of UniProt O75388 (O75388 whole entry, looked up): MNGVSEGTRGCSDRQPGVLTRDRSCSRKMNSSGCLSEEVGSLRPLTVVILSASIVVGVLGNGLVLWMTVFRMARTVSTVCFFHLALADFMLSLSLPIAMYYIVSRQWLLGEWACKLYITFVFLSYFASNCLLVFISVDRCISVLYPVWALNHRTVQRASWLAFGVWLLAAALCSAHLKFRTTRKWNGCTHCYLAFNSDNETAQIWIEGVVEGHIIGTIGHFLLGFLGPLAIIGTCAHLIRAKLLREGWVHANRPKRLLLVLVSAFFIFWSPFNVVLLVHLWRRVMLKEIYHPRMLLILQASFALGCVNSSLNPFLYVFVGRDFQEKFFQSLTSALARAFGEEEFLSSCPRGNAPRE

| SMILES | activation |
| --- | --- |
| CCOc1cc2[nH]c(=O)n(CCCCC(=O)N3CCN(c4cccc(Cl)c4)CC3)c(=O)c2cc1OCC | inactive: -5.31% |
| CC(=O)Nc1ccc(NC(=O)c2cc3sccc3n2Cc2ccc(F)cc2)cc1 | inactive: -9.23% |
| CC(C)(C)C1CCc2c(sc3nc(-c4cc5cc(Br)ccc5oc4=O)[nH]c(=O)c23)C1 (centres undefined) | inactive: 1.9% |
| CCOC(=O)c1c(C)[nH]c(CCC(=O)NCc2ccc(F)cc2)c1C | inactive: -8.08% |
| CCOC(=O)C1CCN(C(c2cccc(F)c2)c2c(O)cc(C)n(Cc3ccco3)c2=O)CC1 (centres undefined) | inactive: -10.7% |
| COCCCNC(=O)c1cnc2c(-c3ccc(F)cc3)c(C)nn2c1C | inactive: -14.9% |
| O=C(c1ccc(Br)cc1)N1CCN(CCc2ccncc2)CC1 | inactive: -12% |
| Cn1nc(-c2ccccc2F)c2cc(C(=O)NCCc3ccc(Cl)cc3)sc21 | inactive: -24.1% |
| CCN1CC(CCN2CCOCC2)C(c2ccccc2)(c2ccccc2)C1=O (centres undefined) | inactive: -36.6% |
| COc1ccc(-c2noc(N(c3cccc(Cl)c3)c3nc(-c4ccc(OC)c(OC)c4)no3)n2)cc1OC | inactive: -1.06% |
| CN(C)c1ccc(CNC(=O)c2cnc3sc(N4CCOCC4)nn3c2=O)cc1 | inactive: -0.545% |
| CCOc1ccc(-c2nc(SCC(=O)c3ccccc3)n[nH]2)cc1 | inactive: 35.7% |
| CC(=O)c1ccc(NC(=O)CSc2ccc(-c3cccs3)nn2)cc1 | inactive: 7.03% |
| Cc1ccc(S(=O)(=O)Cc2ccc(C(=O)NCCc3ccc(Cl)cc3)o2)cc1 | inactive: 38.9% |
| Brc1cccc(-c2nnc(CN3CCN(c4ccccn4)CC3)o2)c1 | inactive: -5.59% |
| Cc1cccc(-n2cc(-c3ccccc3)c3c(NC4CCCC4)ncnc32)c1 | inactive: -39% |
| C=Cc1ccc(Cn2nc(-c3ccc(C)cc3)ccc2=O)cc1 | inactive: -16.7% |
| CCOC(=O)c1cc(C)n(CC2CCC(C(=O)Nc3cccc(C)c3)CC2)c1C (centres undefined) | inactive: -16.1% |
| CCOC(=O)c1c(NC(=O)c2ccc(S(=O)(=O)N3CCC(C)CC3)cc2)sc2c1CCN(CC)C2 | inactive: -4.67% |
| COC(=O)C1=C(C)NC(=O)C1(NC(=O)c1cc(OC)c(OC)c(OC)c1)C(F)(F)F (centres undefined) | inactive: 15.4% |
| Cc1cc(C)nc(NC(=NCCc2c[nH]c3ccc(Cl)cc23)NC(=O)c2ccccc2C)n1 | inactive: 35.9% |

| SMILES | activation |
| --- | --- |
| COc1ccc(OC)c(NC(=O)C2CCN(S(=O)(=O)c3ccc4c(c3)CCCC(=O)N4)CC2)c1 | active: 72.5% |
| CCOC(=O)c1ccc(NC(=O)CCC(=O)N2Cc3ccccc3Oc3ncccc32)cc1 | inactive: -6.52% |
| CCOC(=O)c1c(S(=O)(=O)N2CCCC(C(=O)Nc3cc(C)ccn3)C2)c(C)n(C)c1C (centres undefined) | inactive: 0.173% |
| O=C(c1cc(O)c(O)c(O)c1)c1ccc(O)c(O)c1O | inactive: -27.9% |
| O=C(NC1CCCCC1)c1ccc(CSc2nc3cccnc3n2Cc2ccc(F)cc2)cc1 | inactive: 20.8% |
| O=C1c2[nH]nc(-c3ccccc3O)c2C(c2ccccc2F)N1Cc1cccnc1 (centres undefined) | inactive: -8.99% |
| Cc1cccc(-n2c(Cc3ccccc3)nnc2SCc2nc(-c3cccs3)no2)c1 | inactive: 8.73% |
| O=C(CN1C(=O)COc2ccc(S(=O)(=O)N3CCCC3)cc21)N1CCN(c2ccc(F)cc2)CC1 | inactive: -0.452% |
| O=C1CC(c2nnc(Cc3ccc(F)cc3Cl)o2)CN1c1ccccc1 (centres undefined) | inactive: -0.424% |
| CCOC(=O)c1ccc(N2C(=O)c3n[nH]c(-c4ccco4)c3C2c2ccc(O)c(OCC)c2)cc1 (centres undefined) | inactive: -5.62% |
| Cc1cccc(Nc2nnc(-c3ccc(C)c(S(=O)(=O)NCC4CCCO4)c3)c3ccccc23)c1 (centres undefined) | inactive: -10.3% |
| COCCNc1ccc(-c2nc(-c3ccco3)no2)cc1[N+](=O)[O-] | inactive: -10.1% |
| O=P(O)(O)C(Cl)(Cl)P(=O)(O)O | inactive: 10.1% |
| O=C(Nc1ccccc1C(F)(F)F)n1ncc2cc(Cl)ccc21 | inactive: 10.2% |
| COc1ccc2cc3c(N)nn(C(=O)c4ccc(OC)c(OC)c4)c3nc2c1 | inactive: -2.52% |
| Cc1ccc(-c2cc(C(=O)NCc3ccccc3Cl)c3ccccc3n2)cc1C | inactive: -5.88% |
| Cc1ccc2c(c1)N(CCCC(=O)Nc1cccc(C(F)(F)F)c1)C(=O)CO2 | inactive: -20.2% |
| COc1cccc(CNC(=O)C2CCN(S(=O)(=O)c3ccc4c(c3)CCCN4C(C)=O)CC2)c1 | inactive: -9.38% |
| CCOc1ccc(-c2nc3c(c(SCC(=O)N4CCCCC4)n2)Cc2cccc(OC)c2O3)cc1 | inactive: -12.7% |
| CCCCOc1cc(C(=O)NCCN(CC)CC)c2ccccc2n1 | inactive: -12.9% |
| CCCCN1C(=O)C(O)(CC(=O)c2ccc(C(C)(C)C)cc2)c2ccccc21 (centres undefined) | inactive: -4.68% |

| SMILES | activation |
| --- | --- |
| CCCn1c2ccccc2c2cnn(CC(=O)N3CCN(c4ccccc4)CC3)c(=O)c21 | inactive: -32.7% |
| CCOc1ccc(NC(=O)c2ncoc2-c2ccco2)cc1 | inactive: 45.3% |
| COc1cc(NC(=O)Cn2cc(C(=O)c3ccc(F)cc3)c(=O)c3ccc(C)nc32)cc(OC)c1 | inactive: 19.1% |
| Cc1ccc2nc3c(cc(C#N)c(=O)n3-c3nnc(SCc4ccccc4)s3)c(=O)n2c1 | inactive: 15% |
| Cc1cccc(CSc2ncc(Cl)c(C(=O)Nc3nc4ccc(F)cc4s3)n2)c1 | inactive: -5.97% |
| CC(C)NC(=O)c1ccc(NC(=O)N2CCCCc3ccccc32)cc1 | inactive: 6.42% |
| CCOc1cc(C#N)c(NC(=O)Cn2nnc(-c3ccc(C)cc3)n2)cc1OCC | inactive: 10% |
| COc1cccc(CNC(=O)c2ccc(-n3c(C)cc4c3CCC(C)C4)cc2)c1 (centres undefined) | inactive: -11% |
| O=C(Cn1c(=O)nc(-c2ccccc2)c2cc(Cl)ccc21)Nc1ccc(F)c(Cl)c1 | inactive: -2.21% |
| CCOc1ccc(-c2nnc(SCC(=O)Nc3cccc(OC)c3)nc2-c2ccc(OCC)cc2)cc1 | inactive: -14.3% |
| O=C(NCC(c1ccc(Cl)cc1)N1CCOCC1)c1ccccc1F (centres undefined) | inactive: -5.73% |
| CCS(=O)(=O)CCn1c([N+](=O)[O-])cnc1C | inactive: 9.68% |
| COc1cccc(C2CC(=O)Nc3c2c(=O)[nH]c2nc4ccccc4n32)c1 (centres undefined) | inactive: 15.1% |
| O=C(COc1ccc([N+](=O)[O-])cc1)Nc1nc2c(s1)CCCC2 | inactive: -5.22% |
| COc1ccc(C(=O)NCC(c2ccc3c(c2)OCO3)N2CCN(c3ccccc3F)CC2)cc1 (centres undefined) | inactive: -28.9% |
| O=C1CCc2cc(OCCCCc3nnnn3C3CCCCC3)ccc2N1 | inactive: 29.8% and inactive: 12.1% |
| Cc1ccccc1-c1nnn(CC(=O)Nc2sc3c(c2C#N)CCC(C(C)(C)C)C3)n1 (centres undefined) | inactive: 25.7% |
| CCc1ccc(NC(=O)Cn2c(=O)n(CCCCC(=O)NCCc3ccc(Cl)cc3)c(=O)c3ccccc32)cc1 | inactive: -3.92% |
| COc1cc(OC)cc(-c2nc(-c3ccc4c(c3)[nH]c(=O)n4C)no2)c1 | inactive: -9.44% |
| O=C1CCCc2cc(S(=O)(=O)N3CCCC(C(=O)NCc4ccc(Cl)cc4)C3)ccc2N1 (centres undefined) | inactive: 45.7% |
| O=c1[nH]c2ccc(NCc3ccc(-c4ccc(Br)cc4)o3)cc2[nH]1 | inactive: -24.1% |

| SMILES | activation |
| --- | --- |
| CCOC(=O)c1c(NC(=O)c2nc(S(C)(=O)=O)ncc2Cl)sc(C(C)=O)c1C | inactive: 5.83% |
| Cc1ccc2ncc(C(=O)Nc3ccc(OC(F)(F)F)cc3)c(=O)n2c1 | inactive: 9.23% |
| O=C(CSc1nnc(-c2ccc(F)cc2)o1)N1CCCc2ccccc21 | inactive: -9.88% |
| Cc1ccc(CSc2nnc3[nH]c(=O)cc(-c4ccccc4)n23)cc1 | inactive: 3.44% |
| O=C(O)c1ccccc1-c1ccc(C(F)(F)F)cc1 | inactive: 17% |
| COc1cc(OC)c(NS(=O)(=O)c2ccc3oc(=O)c4ncn(C)c4c3c2)cc1Cl | inactive: -13.1% |
| COc1ccc(-n2c(SCC(=O)NCc3ccc(C)cc3)nc3n[nH]c(C)c3c2=N)cc1 | inactive: -17% |
| Fc1ccc(-c2nc(Nc3cccc(C(F)(F)F)c3)nc3c2COc2ccccc2-3)cc1 | inactive: -2.25% |
| COC(=O)c1sccc1S(=O)(=O)N(CC(=O)NCc1ccc(C)cc1)c1ccc(C)cc1 | inactive: -5.04% |
| COc1ccc(N2CCN(CCCNC(=O)Nc3ccccc3)CC2)cc1 | inactive: 38.8% |
| COc1ccc(C2C=C(c3ccc(Cl)c(Cl)c3)Nc3ncnn32)cc1 (centres undefined) | inactive: 2.74% |
| O=C(CCC1N=C2c3ccccc3N=C(SCc3ccc(Cl)cc3)N2C1=O)N1CCN(c2ccccc2)CC1 (centres undefined) | inactive: -8.59% |
| CC(C)(C)c1ccc(OCc2nnc(-c3ccccc3)o2)cc1 | inactive: 2.6% |
| CCn1cc(C(=O)NCc2ccc(Cl)cc2)c(=O)c2cc(S(=O)(=O)N(C)C3CCCCC3)ccc21 | inactive: 8.44% |
| CCOC(=O)C1=C(CN2CCN(c3cccc(Cl)c3)CC2)NC(=O)NC1c1ccc(Cl)cc1 (centres undefined) | inactive: -8.42% |
| COc1ccc(S(=O)(=O)NCCSc2nnnn2-c2ccccc2)cc1 | inactive: 29.9% |
| COc1ccc(NC(=O)CCCn2nc(C)c3sc4ccccc4c3c2=O)cc1 | inactive: -6.75% |
| CC(CNC(=O)c1ccc2nc(Cc3ccccc3)oc2c1)c1ccccc1 (centres undefined) | inactive: -16.8% |
| Cc1cc(-n2c(C)nc3ccccc3c2=O)ccc1NC(=O)C(F)(F)F | inactive: 49.5% |
| Fc1ccc(C2=CC(c3ccc(F)cc3)n3c(nc4ccccc43)N2)cc1 (centres undefined) | inactive: -43.2% |
| O=C(Cn1ncc2c3ccccc3n(Cc3ccc(F)cc3)c2c1=O)NCc1cccs1 | inactive: -2.11% |
